{"source": "the supplement of paper PMC8728848", "assay_in_all_cases": "glycan array binding signal (z-score within array); higher = stronger binding", "details_in_all_cases": "glycan notation: IUPAC condensed, linker removed", "key": {"[1]": {"target": "3dGal(b1-3)[Fuc(a1-4)]Glc", "in_short": "(§1)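 The binding signal is a Z-score computed within each array. Data were drawn from 3228 arrays in the Consortium for Functional Glycomics database, restricted to those with a known protein sequence. Scores were averaged over arrays of the same protein sequence at different concentrations or buffers, and over linkers, and negative values can be taken as non-binding.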"}, "3dGal(b1-4)Glc": {"target": "3dGal(b1-4)Glc", "in_short": "as §1"}, "[2]": {"target": "4d8dNeu5Ac(a2-3)Gal(b1-4)Glc", "in_short": "as §1"}, "[3]": {"target": "4dNeu5Ac(a2-3)Gal(b1-4)Glc", "in_short": "as §1"}, "[4]": {"target": "7dNeu5Ac(a2-3)Gal(b1-4)Glc", "in_short": "as §1"}, "[5]": {"target": "8dNeu5Ac(a2-3)Gal(b1-4)Glc", "in_short": "as §1"}, "[6]": {"target": "9dNeu5Ac(a2-3)Gal(b1-4)Glc", "in_short": "as §1"}, "[7]": {"target": "Ara(a1-5)Ara(a1-5)Ara(a1-5)Ara(a1-5)Ara(a1-5)Ara", "in_short": "as §1"}, "[8]": {"target": "Ara(a1-5)Ara(a1-5)Ara(a1-5)Ara(a1-5)Ara(a1-5)Ara(a1-5)Ara", "in_short": "as §1"}, "Fuc(a1-2)Gal": {"target": "Fuc(a1-2)Gal", "in_short": "as §1"}, "[9]": {"target": "Fuc(a1-2)Gal(b1-3)GlcNAc(b1-3)Gal(b1-4)Glc", "in_short": "as §1"}, "[10]": {"target": "Fuc(a1-2)Gal(b1-3)GlcNAc(b1-3)[Fuc(a1-3)[Gal(b1-4)]GlcNAc(b1-6)]Gal(b1-4)Glc", "in_short": "as §1"}, "[11]": {"target": "Fuc(a1-2)Gal(b1-3)[Fuc(a1-4)]GlcNAc(b1-3)Gal(b1-4)Glc", "in_short": "as §1"}, "[12]": {"target": "Fuc(a1-2)Gal(b1-3)[Fuc(a1-4)]GlcNAc(b1-3)Gal(b1-4)[Fuc(a1-3)]GlcNAc(b1-3)Gal(b1-4)Glc", "in_short": "as §1"}, "[13]": {"target": "Fuc(a1-2)Gal(b1-3)[Fuc(a1-4)]GlcNAc(b1-3)[Fuc(a1-2)]Gal(b1-4)Glc", "in_short": "as §1"}, "[14]": {"target": "Fuc(a1-2)Gal(b1-3)[Fuc(a1-4)]GlcNAc(b1-3)[Fuc(a1-3)[Gal(b1-4)]GlcNAc(b1-6)]Gal(b1-4)Glc", "in_short": "as §1"}, "[15]": {"target": "Fuc(a1-2)Gal(b1-3)[Fuc(a1-4)]GlcNAc(b1-3)[Gal(b1-4)GlcNAc(b1-6)]Gal(b1-4)Glc", "in_short": "as §1"}, "[16]": {"target": "Fuc(a1-2)Gal(b1-4)[Fuc(a1-3)]GlcNAc(b1-3)Gal(b1-4)Glc", "in_short": "as §1"}, "[17]": {"target": "Fuc(a1-2)Gal(b1-4)[Fuc(a1-3)]GlcNAc(b1-3)[Fuc(a1-2)]Gal(b1-4)Glc", "in_short": "as §1"}, "Fuc(a1-2)[Gal(a1-3)]Gal": {"target": "Fuc(a1-2)[Gal(a1-3)]Gal", "in_short": "as §1"}, "[18]": {"target": "Fuc(a1-2)[Gal(a1-3)]Gal(b1-4)GlcNAc(b1-3)Gal(b1-4)Glc", "in_short": "as §1"}, "[19]": {"target": "Fuc(a1-2)[GalNAc(a1-3)]Gal", "in_short": "as §1"}, "[20]": {"target": "Fuc(a1-2)[GalNAc(a1-3)]Gal(b1-3)GlcNAc(b1-3)Gal(b1-4)Glc", "in_short": "as §1"}, "[21]": {"target": "Fuc(a1-2)[GalNAc(a1-3)]Gal(b1-3)[Fuc(a1-4)]GlcNAc(b1-3)Gal(b1-4)Glc", "in_short": "as §1"}, "[22]": {"target": "Fuc(a1-2)[Neu5Ac(bond)]Gal(b1-3)GlcNAc(b1-3)Gal(b1-4)Glc", "in_short": "as §1"}, "Fuc(a1-3)GlcNAc6S": {"target": "Fuc(a1-3)GlcNAc6S", "in_short": "as §1"}, "[23]": {"target": "Fuc(a1-3)[3dGal(b1-4)]Glc", "in_short": "as §1"}, "[24]": {"target": "Fuc(a1-3)[3dGal(b1-4)]GlcNAc(b1-3)Gal", "in_short": "as §1"}, "Fuc(a1-3)[Gal(b1-4)]Glc": {"target": "Fuc(a1-3)[Gal(b1-4)]Glc", "in_short": "as §1"}, "[25]": {"target": "Fuc(a1-3)[Gal(b1-4)]GlcNAc", "in_short": "as §1"}, "[26]": {"target": "Fuc(a1-3)[Gal(b1-4)]GlcNAc(b1-3)Gal(b1-4)Glc", "in_short": "as §1"}, "[27]": {"target": "Fuc(a1-3)[Gal(b1-4)]GlcNAc(b1-3)Gal(b1-4)[Fuc(a1-3)]Glc", "in_short": "as §1"}, "[28]": {"target": "Fuc(a1-3)[Gal(b1-4)]GlcNAc(b1-3)[Fuc(a1-2)]Gal(b1-4)Glc", "in_short": "as §1"}, "[29]": {"target": "Fuc(a1-3)[Gal(b1-4)]GlcNAc(b1-3)[Fuc(a1-3)[Gal(b1-4)]GlcNAc(b1-6)]Gal(b1-4)Glc", "in_short": "as §1"}, "[30]": {"target": "Fuc(a1-3)[Gal3S(b1-4)]Glc", "in_short": "as §1"}, "[31]": {"target": "Fuc(a1-3)[Gal3S(b1-4)]GlcNAc", "in_short": "as §1"}, "[32]": {"target": "Fuc(a1-3)[Gal3S(b1-4)]GlcNAc(b1-3)Gal", "in_short": "as §1"}}, "note": "The list shows a part of the results."}
{"binder": "HysACBM (Streptococcus pneumoniae), Q54873 (protein) KNLVENGDFGQTEDGSSPWTGSKAQGWSAWVDQKNSADASTRVIEAKDGAITISSHEKLRAALHRMVPIEAKKKYKLRFKIKTDNKIGIAKVRIIEESGKDKRLWNSATTSGTKDWQTIEADYSPTLDVDKIKLELFYETGTGTVSFKDIELVEVADQLS", "values": [{"measurement": "glycan array binding signal (z-score)", "setting": "[1]", "value": -0.091}, {"measurement": "glycan array binding signal (z-score)", "setting": "3dGal(b1-4)Glc", "value": -0.091}, {"measurement": "glycan array binding signal (z-score)", "setting": "[2]", "value": -0.091}, {"measurement": "glycan array binding signal (z-score)", "setting": "[3]", "value": -0.091}, {"measurement": "glycan array binding signal (z-score)", "setting": "[4]", "value": -0.091}, {"measurement": "glycan array binding signal (z-score)", "setting": "[5]", "value": -0.091}, {"measurement": "glycan array binding signal (z-score)", "setting": "[6]", "value": -0.091}, {"measurement": "glycan array binding signal (z-score)", "setting": "[7]", "value": -0.091}, {"measurement": "glycan array binding signal (z-score)", "setting": "[8]", "value": -0.091}, {"measurement": "glycan array binding signal (z-score)", "setting": "Fuc(a1-2)Gal", "value": 0.026}, {"measurement": "glycan array binding signal (z-score)", "setting": "[9]", "value": -0.091}, {"measurement": "glycan array binding signal (z-score)", "setting": "[10]", "value": -0.091}, {"measurement": "glycan array binding signal (z-score)", "setting": "[11]", "value": -0.054}, {"measurement": "glycan array binding signal (z-score)", "setting": "[12]", "value": -0.091}, {"measurement": "glycan array binding signal (z-score)", "setting": "[13]", "value": 0.039}, {"measurement": "glycan array binding signal (z-score)", "setting": "[14]", "value": 0.584}, {"measurement": "glycan array binding signal (z-score)", "setting": "[15]", "value": 0.047}, {"measurement": "glycan array binding signal (z-score)", "setting": "[16]", "value": 0.097}, {"measurement": "glycan array binding signal (z-score)", "setting": "[17]", "value": -0.073}, {"measurement": "glycan array binding signal (z-score)", "setting": "Fuc(a1-2)[Gal(a1-3)]Gal", "value": -0.085}, {"measurement": "glycan array binding signal (z-score)", "setting": "[18]", "value": -0.091}, {"measurement": "glycan array binding signal (z-score)", "setting": "[19]", "value": -0.091}, {"measurement": "glycan array binding signal (z-score)", "setting": "[20]", "value": -0.091}, {"measurement": "glycan array binding signal (z-score)", "setting": "[21]", "value": -0.091}, {"measurement": "glycan array binding signal (z-score)", "setting": "[22]", "value": -0.091}, {"measurement": "glycan array binding signal (z-score)", "setting": "Fuc(a1-3)GlcNAc6S", "value": -0.091}, {"measurement": "glycan array binding signal (z-score)", "setting": "[23]", "value": -0.091}, {"measurement": "glycan array binding signal (z-score)", "setting": "[24]", "value": -0.091}, {"measurement": "glycan array binding signal (z-score)", "setting": "Fuc(a1-3)[Gal(b1-4)]Glc", "value": -0.091}, {"measurement": "glycan array binding signal (z-score)", "setting": "[25]", "value": -0.091}, {"measurement": "glycan array binding signal (z-score)", "setting": "[26]", "value": -0.091}, {"measurement": "glycan array binding signal (z-score)", "setting": "[27]", "value": 0.007}, {"measurement": "glycan array binding signal (z-score)", "setting": "[28]", "value": -0.091}, {"measurement": "glycan array binding signal (z-score)", "setting": "[29]", "value": -0.091}, {"measurement": "glycan array binding signal (z-score)", "setting": "[30]", "value": -0.091}, {"measurement": "glycan array binding signal (z-score)", "setting": "[31]", "value": -0.091}, {"measurement": "glycan array binding signal (z-score)", "setting": "[32]", "value": -0.091}]}
